# Results: PMC4336329 (PLoS ONE, 2015)
# In all, about 310,000 compounds went through this assay and about 14,000 (4.5%) showed an effect of 50% or more. The effect is printed as a negative number. This is one part of the list.
# Molecular target: human ether-à-go-go-related gene (hERG) potassium channel (human, UniProt Q12809)
# Experiment: primary screen, population patch clamp on CHO cells stably expressing hERG
# 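Further: peak tail current of the secondary pulse compared with the same well before compound.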
# human ether-à-go-go-related gene (hERG) potassium channel, sequence (Q12809 whole entry, looked up): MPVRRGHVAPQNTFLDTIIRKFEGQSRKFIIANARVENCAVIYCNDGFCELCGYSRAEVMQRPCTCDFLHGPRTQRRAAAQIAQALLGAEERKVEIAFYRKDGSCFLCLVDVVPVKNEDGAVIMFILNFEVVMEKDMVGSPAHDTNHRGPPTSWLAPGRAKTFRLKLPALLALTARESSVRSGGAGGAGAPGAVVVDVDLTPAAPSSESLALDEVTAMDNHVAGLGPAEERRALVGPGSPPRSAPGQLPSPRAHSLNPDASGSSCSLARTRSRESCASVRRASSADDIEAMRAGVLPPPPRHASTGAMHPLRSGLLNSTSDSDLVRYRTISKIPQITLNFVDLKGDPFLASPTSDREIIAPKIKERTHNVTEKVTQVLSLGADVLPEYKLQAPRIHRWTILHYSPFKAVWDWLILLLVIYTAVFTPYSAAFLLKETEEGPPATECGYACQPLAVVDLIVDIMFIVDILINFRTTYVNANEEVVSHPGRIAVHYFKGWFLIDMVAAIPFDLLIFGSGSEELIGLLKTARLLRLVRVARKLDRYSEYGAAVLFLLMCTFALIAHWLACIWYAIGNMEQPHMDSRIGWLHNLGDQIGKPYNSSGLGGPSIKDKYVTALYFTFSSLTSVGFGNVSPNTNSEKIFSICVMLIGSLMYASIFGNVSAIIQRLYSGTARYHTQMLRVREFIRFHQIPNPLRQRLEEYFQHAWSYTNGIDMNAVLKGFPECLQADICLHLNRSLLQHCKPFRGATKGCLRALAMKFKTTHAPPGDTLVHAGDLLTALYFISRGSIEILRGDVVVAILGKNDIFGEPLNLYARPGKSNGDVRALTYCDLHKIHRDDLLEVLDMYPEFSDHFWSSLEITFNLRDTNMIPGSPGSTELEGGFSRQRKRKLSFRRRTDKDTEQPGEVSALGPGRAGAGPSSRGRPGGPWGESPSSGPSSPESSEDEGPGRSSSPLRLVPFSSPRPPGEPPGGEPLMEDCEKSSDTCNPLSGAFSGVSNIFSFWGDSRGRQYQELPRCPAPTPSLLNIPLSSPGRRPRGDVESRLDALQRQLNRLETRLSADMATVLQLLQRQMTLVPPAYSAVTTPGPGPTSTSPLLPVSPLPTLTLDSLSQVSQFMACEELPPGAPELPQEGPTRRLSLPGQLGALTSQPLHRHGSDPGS
row,Structure (SMILES),"hERG current change (%, negative = inhibition) at 10uM"
1,Cc1cc2cc(CNC(=O)c3ccc(S(=O)(=O)N4CCCCC4)cc3)ccc2[nH]1,-5.25%
2,Cc1cccc(CCNS(=O)(=O)c2ccc3c(c2)oc(=O)n3C)c1,-18.9%
3,COc1ccc(C(C)(C)C)cc1NC(=O)CCc1c(C)noc1C,-9.96%
4,COc1ccc(NC(=S)Nc2ccccc2OC)c(OC)c1,15.6%
5,CC1(C)CC(=O)C2=C(C1)N(c1ccccc1)C(=O)CC2c1ccsc1 (stereo not shown),-14.4%
6,CCn1cc(SCC(=O)NCC2CCCO2)c2ccccc21 (stereo not shown),15.7%
7,CNC(=S)N1N=C(c2ccccc2)CC1c1ccc(OC)c(OC)c1 (stereo not shown),-15.7%
8,COC(=O)c1ccc(S(=O)(=O)N2C3CCC2CC(NC(=O)NC2CCCCC2)C3)cc1 (stereo not shown),-3.58%
9,Cn1c2c(c(=O)n(C)c1=O)C(C(F)(F)F)(C(F)(F)F)N=C(CCC1CCCCC1)N2,-0.915%
10,CCCNS(=O)(=O)c1ccc(OCC(=O)N2CCN(c3ccccc3)CC2)cc1,-42.8%
11,C/C(=N\NC(=O)c1cccnc1)c1ccccc1,10.9%
12,O=C(CCCN1C(=O)c2ccccc2C1=O)Nc1cccc(S(=O)(=O)NC2=NCCC2)c1,13.5%
13,Fc1ccc(SCCc2ccccn2)cc1,8.06%
14,NS(=O)(=O)c1cc(C2(O)NC(=O)c3ccccc32)ccc1Cl (stereo not shown),2.05%
15,O=C(CN1CCC(NC(=O)C2CC2)CC1)Nc1cccc(F)c1,-18.9%
16,Cn1c(=O)c(C(=O)NNC(=O)c2ccccc2F)c(O)c2ccccc21,20.9%
17,CC(C)(C)c1cc(CN2CCCCC2)cc(C(C)(C)C)c1O,-50.7%
18,Cc1ccnc(NC(=O)c2ccc(NC(=O)c3ccco3)cc2)c1,0.683%
19,O=C1CC(SCCO)C(=O)N1c1ccc(Oc2ccccc2)cc1 (stereo not shown),-14.8%
20,COc1cccc(/C=N/NC(=O)CN(CCc2ccccc2)S(=O)(=O)c2ccc(NC(C)=O)cc2)c1,0.26%
21,CC(=O)Nc1ccc(Nc2nc(C)nc3c2nnn3Cc2ccccc2Cl)cc1,-16.8%
22,CCOC(=O)C#CC(CCc1ccccc1)OS(N)(=O)=O (stereo not shown),11.8%

row,Structure (SMILES),"hERG current change (%, negative = inhibition) at 10uM"
1,CN(c1cccc(NC(=O)CN(c2cccc(Cl)c2)S(=O)(=O)c2ccc(Cl)cc2)c1)S(C)(=O)=O,14.8%
2,CCOC(=O)CN1C(=O)S/C(=C/c2ccc(O)c([N+](=O)[O-])c2)C1=O,0.587%
3,COc1ccc(C(=O)N/C(=C\c2cn(C)c3ccccc23)C(=O)NCCCN2CCOCC2)cc1OC,5.38%
4,COc1ccc(C(C(=O)NC2CCCC2)N(C(=O)c2snc(C(N)=O)c2N)c2cccc(O)c2)cc1 (stereo not shown),14.5%
5,CCn1nc(CC(C)C)cc1C(=O)N1CCCC(Nc2ccc(OC)cc2)C1 (stereo not shown),9.27%
6,COc1ccc(-c2cc(C(=O)Nc3c(C)n(C)n(-c4ccccc4)c3=O)c3ccccc3n2)c(OC)c1,6.95%
7,Cc1c2c(c(C)n1C)C(C(=O)NC1CCCCC1)N(Cc1ccccc1)C2=O (stereo not shown),-6.12%
8,Cc1ccc(CNC(=O)C2CC(=O)N(C3CCCCCCC3)C2)cc1 (stereo not shown),6.14%
9,O=C(NCC1CCCCC1)c1cccc(S(=O)(=O)N2CCCC2)c1,5.68%
10,CC(C)n1cnnc1SCC(=O)NCC(=O)Nc1ccc(F)cc1,11.2%
11,CCc1ccc(NC(=O)c2cccnc2)cc1,13.6%
12,CC(=O)NC(Nc1nc2c(s1)CCCC2)(C(F)(F)F)C(F)(F)F,23.8%
13,O=C(NCCCNC(=O)c1ccccc1)c1ccccc1,0.548%
14,CC1(OC(=O)C2CCCC2)C(=O)C=C2C=C(c3ccsc3)N(Cc3ccco3)C=C2C1=O (stereo not shown),-23.2%
15,Cc1ccccc1C(=O)NC1CCN(CC(=O)Nc2ccccc2Cl)CC1,-14.4%
16,CC(C)(C)c1ccc(C(=O)Nc2ccc(N3CCOCC3)cc2)cc1,-4.74%
17,CC(C)[C@H](NC(=O)C1CCN(S(=O)(=O)c2ccccc2)CC1)C(=O)NCc1ccc(F)cc1,-8.26%
18,Cc1cc2cc(CNC(=O)c3cc4ccccc4o3)ccc2n1C,7.58%
19,COc1ccc(C(CC(=O)Nc2ncccc2C)N2Cc3ccccc3C2=O)cc1OC (stereo not shown),24.1%
20,Cc1cc(SCCOc2ccc(Br)cc2)nc(N)n1,-3.59%
21,C/C(=N/NC(=O)CNC(=O)COc1ccccc1)c1ccco1,-3.93%
